Measured values as given in PubChem BioAssay AID1476 (National Center for Advancing Translational Sciences (NCATS), 2009).
About 4,500 (2.2%) of roughly 200,000 compounds were called active. The inconclusive results got no clear call from the source; some entries with a clear call stand among them for comparison. The call rests on the fitted dose curve; in most records, active means well fitted inhibition curve with a large enough effect; inconclusive means small, poorly fitted or top-dose-only effect, or effect the other way; inactive means flat fitted curve, though single readings scatter. Potencies of inconclusive entries are doubtful fits and often do not repeat.
Further: nearly all actives have a fitted effect of over 40% in size.
Potency means the concentration at half of the fitted maximal effect; tags describe the fitted curve by direction and shape.
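Wherever max response, negative = inhibition is given: plate controls were enzyme without inhibitor for no effect and buffer without enzyme for full effect.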

These molecules were tested against Cruzipain (Trypanosoma cruzi) (UniProt P25779) (assay: qHTS Assay for Promiscuous and Specific Inhibitors of Cruzain (without detergent)). Details: purified cruzain, Z-FR-AMC fluorescence, no detergent.
Sequence of UniProt P25779 (P25779 whole entry, looked up): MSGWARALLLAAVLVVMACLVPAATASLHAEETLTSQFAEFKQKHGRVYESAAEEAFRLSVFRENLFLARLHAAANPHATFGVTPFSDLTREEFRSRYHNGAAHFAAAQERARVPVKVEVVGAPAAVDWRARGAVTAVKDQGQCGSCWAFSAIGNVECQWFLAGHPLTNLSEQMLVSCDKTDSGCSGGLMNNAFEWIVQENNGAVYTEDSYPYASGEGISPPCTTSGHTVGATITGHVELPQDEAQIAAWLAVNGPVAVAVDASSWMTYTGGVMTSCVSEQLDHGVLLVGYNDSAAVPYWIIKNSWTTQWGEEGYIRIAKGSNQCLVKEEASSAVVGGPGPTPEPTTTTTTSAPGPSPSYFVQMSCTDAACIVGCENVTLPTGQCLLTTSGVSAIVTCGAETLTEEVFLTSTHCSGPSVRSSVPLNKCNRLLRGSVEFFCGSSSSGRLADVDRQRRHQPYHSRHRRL
Summary of the method: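 Detergent-free condition (0.00005% Triton X-100) in acetate buffer pH 5.5 with DTT. 1.5 nM enzyme and compound were pre-mixed 15 min, then 2 uM Z-FR-AMC substrate added; reaction progress from fluorescence change between first and third reads (60 s).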
For `Cc1cc(C)c2[nH]c(=O)c(CN(Cc3cccs3)C(=S)NCc3ccco3)cc2c1`, the Potency was inconclusive: 39.8 µM [inhibitor, single point]. `CC(=O)OCC1OC(Sc2cccc3cccnc23)C(OC(C)=O)C(OC(C)=O)C1OC(C)=O` (configuration not stated) was tested, and the Potency was inconclusive: 39.8 µM [activator, single point]. For `O=C(NC(=S)N1CCCc2ccccc21)c1ccc(Cl)cc1`, the Potency was inconclusive: 39.8 µM [inhibitor, single point]. In the case of `COC(=O)c1ccccc1NC(=O)CN1CCC(n2nnc3cc(F)ccc32)CC1`, the Potency is reported as inconclusive: 31.6 µM [inhibitor, single point]. `NC(=O)CN1CCN(C(=O)Nc2ccccc2)CC1` was tested, and the max response, negative = inhibition was inactive: 6.5%. `Cc1cccc(N2CCN(C(=O)Cn3c(=O)c4cccn4c4ccc(F)cc43)CC2C)c1` (configuration not stated) was tested, and the max response, negative = inhibition was inactive: 4.74%. In the case of `Cc1ccc(N2CC(c3nnc(Cc4ccc(Cl)cc4)o3)CC2=O)cc1` (configuration not stated), the Potency is reported as inconclusive: 31.6 µM [activator, single point]. In the case of `CCOCCCNc1nc2c(c(=O)n(C)c(=O)n2C)n1CCCc1ccccc1`, the Potency is reported as inconclusive: 31.6 µM [activator, single point]. In the case of `Cc1cc(/C=N/NC(=O)c2cccc([N+](=O)[O-])c2)c(C)n1-c1ccc(Cl)cc1Cl`, the Potency is reported as inconclusive: 39.8 µM [inhibitor, single point]. `O=C(CNC(=S)NC(=O)C1CCCCC1)c1ccccc1` was tested, and the Potency was inconclusive: 25.1 µM [inhibitor, single point]. With `Cc1nnc(NC(=O)c2c(-c3ccccc3)noc2C)s1` the max response, negative = inhibition was inactive: -4.88%. In the case of `NC(=O)c1c(-c2ccc(Cl)cc2Cl)csc1NC(=O)Cc1ccccc1`, the Potency is reported as inconclusive: 39.8 µM [inhibitor, single point]. `Cc1ccc(-c2cc(C(=O)OCn3nnc4ccccc4c3=O)c3ccccc3n2)cc1` was tested, and the Potency was inconclusive: 39.8 µM [inhibitor, single point]. For `Cc1cc(O)c(CN2CCN(c3ccccc3)CC2)c2oc(=O)cc(C)c12`, the Potency was inconclusive: 31.6 µM [inhibitor, single point]. With `CCc1nnc2sc(-c3cc(-c4ccccc4)nc4ccccc34)nn12` the Potency was inconclusive: 39.8 µM [activator, single point]. `O=C(Nc1c2c(nn1-c1ccc(Cl)cc1)CS(=O)(=O)C2)c1ccc(Br)cc1` was tested, and the max response, negative = inhibition was inactive: -9.43%. With `Cc1ccc(NC(=O)C2CCCN(S(=O)(=O)c3cccs3)C2)c(C)c1` (configuration not stated) the max response, negative = inhibition was inactive: -7.17%. In the case of `CC(=O)O[C@H]1C[C@@]2(C)[C@H](C[C@@H](O)[C@H]3[C@@]4(C)CC[C@@H](O)[C@@H](C)[C@H]4CC[C@@]32C)C1=C(CCC=C(C)C)C(=O)O`, the Potency is reported as inconclusive: 12.6 µM [activator, partial curve]. For `Cc1ccc(S(=O)(=O)N(C)c2ccc(OCC(=O)OCc3c(C)noc3C)cc2)cc1`, the Potency was inconclusive: 39.8 µM [activator, single point]. For `N#Cc1ccc(C23CC4(C2)[C@H](CN(Cc2ccc(-c5ccccc5)cc2)[C@@H]4c2ccccc2)C3c2ccccc2)cc1` (some centres not stated), the Potency was active: 12.6 µM. In the case of `CCCCC(=O)Nc1ccc(C(=O)N2CCN(c3ccccc3OC)CC2)cc1`, the Potency is reported as inconclusive: 39.8 µM [activator, single point]. `Fc1ccc(-c2nc(-c3cccs3)[nH]c2-c2ccc(F)cc2)cc1` was tested, and the Potency was inconclusive: 20 µM [activator, partial curve, poor fit]. In the case of `Cc1ccc(CCNC(=O)c2ccc3c(c2)N(Cc2cccc(F)c2)C(=O)c2ccccc2S3)cc1`, the Potency is reported as inconclusive: 39.8 µM [inhibitor, single point]. With `CCOC(=O)c1c(NC(=O)CSc2nnc(-c3cccnc3)o2)sc2c1CCC2` the Potency was inconclusive: 39.8 µM [activator, single point]. For `Cc1cc2cc(C(c3nnnn3Cc3ccccc3)N3CCc4ccccc43)c(=O)[nH]c2cc1C` (configuration not stated), the Potency was inconclusive: 39.8 µM [inhibitor, single point]. For `N#C/C(=C\N1CCNC1=S)C(=O)c1ccc2ccccc2c1`, the Potency was inconclusive: 3.16 µM [inhibitor, partial curve]. With `Cc1ccc(OCCNc2ccc(C(F)(F)F)cc2[N+](=O)[O-])cc1` the Potency was inconclusive: 31.6 µM [inhibitor, single point]. `CCc1ccc2oc(-c3cc(NC(=O)c4cccs4)ccc3Cl)nc2c1` was tested, and the Potency was inconclusive: 31.6 µM [inhibitor, single point]. In the case of `CC(C)Cn1c(N)c(C(=O)NCCN2CCOCC2)c2nc3ccccc3nc21`, the Potency is reported as inconclusive: 15.8 µM [activator, partial curve]. `Cc1ccc(NC(=O)COC(=O)c2csc3c2CCC(C)C3)cc1S(=O)(=O)N1CCCCC1` (configuration not stated) was tested, and the Potency was active: 25.1 µM. `Clc1ccc(N2N=C(c3cccs3)CC2c2ccco2)cc1` (configuration not stated) was tested, and the Potency was inconclusive: 31.6 µM [inhibitor, single point]. In the case of `Cc1cccc(C)c1Nc1nnc(SC/C(O)=C(\C#N)c2nc3ccccc3[nH]2)s1`, the Potency is reported as inconclusive: 20 µM [inhibitor, single point]. For `CCCCOc1cccc(C2c3c(-c4cc(C)ccc4O)n[nH]c3C(=O)N2CCOC)c1` (configuration not stated), the max response, negative = inhibition was inactive: 10.4%. In the case of `O=C(Nc1ccccc1C(=O)N1CCCCC1)c1nsc2ccccc12`, the max response, negative = inhibition is reported as inactive: -3.83%. For `CCOc1ccc2nc(NC3=NC(C)(C)C=C(C)N3)nc(C)c2c1`, the Potency was active: 15.8 µM. With `CSc1ncc(Cl)c(C(=O)Nc2nnc(SC/C=C/c3ccccc3)s2)n1` the Potency was inconclusive: 39.8 µM [inhibitor, single point]. For `CCOCC(=O)Nc1nc2ccc(C)cc2s1`, the max response, negative = inhibition was inactive: 3.54%. For `O=C(Cn1c(=O)c2c(ncn2Cc2ccccc2)n(Cc2ccccc2)c1=O)N1CCc2ccccc21`, the Potency was inconclusive: 39.8 µM [inhibitor, single point]. With `CCc1ccc(OCC(=O)NC(=S)Nc2ccc(C)cc2C)c(Br)c1` the Potency was active: 12.6 µM. `Cc1ccc(-c2csc(Cc3nc(-c4cc5ccccc5oc4=O)cs3)n2)cc1` was tested, and the Potency was active: 6.31 µM. In the case of `O=C(Cc1ccc(-c2ccccc2)cc1)NCCS(=O)(=O)N1CCN(c2ccccc2F)CC1`, the Potency is reported as active: 12.6 µM. `COC(=O)CN1C(=O)CSc2ccc(S(=O)(=O)Nc3ccc(C)c(Cl)c3)cc21` was tested, and the max response, negative = inhibition was inactive: -3.81%. With `COc1ccc(N/N=C(/N=Nc2nc(C)cc(=O)[nH]2)c2ccccc2)cc1` the Potency was inconclusive: 39.8 µM [activator, single point]. `O=C(CN1CCN(C(=S)NC2CCCC2)CC1)Nc1ccc(Oc2ccccc2)cc1` was tested, and the Potency was inconclusive: 31.6 µM [activator, single point]. For `O=c1[nH]c(CSc2nc(-c3ccccc3)cs2)nc2ccccc12`, the Potency was inconclusive: 31.6 µM [inhibitor, single point]. In the case of `Cc1ccc(NC(=O)c2cc(NC(=O)C3CC=CCC3C(=O)O)ccc2N2CCOCC2)cc1Cl` (configuration not stated), the Potency is reported as inconclusive: 39.8 µM [activator, single point]. `O=C(CCCCCn1c(=O)c2sccc2n(CC(=O)Nc2ccccc2F)c1=O)NCc1ccc2c(c1)OCO2` was tested, and the max response, negative = inhibition was inactive: 1.8%. With `COCCn1c(SCc2nc3scc(-c4ccc(Cl)cc4)c3c(=O)[nH]2)nnc1-c1cccc(C)c1` the Potency was active: 25.1 µM. In the case of `CC(C)C(NS(=O)(=O)c1cccc2nsnc12)C(=O)Nc1nc2ccc(Cl)cc2s1` (configuration not stated), the Potency is reported as inconclusive: 25.1 µM [inhibitor, single point]. With `Cc1cccc(N2CCn3c2nc2c3c(=O)n(CCCc3ccccc3)c(=O)n2C)c1` the max response, negative = inhibition was inactive: 12.8%. For `COc1cc2c(C(=O)N(C)c3cccc(C(F)(F)F)c3)cn(CC(C)C)c(=O)c2cc1OC`, the Potency was inconclusive: 25.1 µM [activator, partial curve]. In the case of `COc1cc2c(cc1OC)C(COc1cc(C)cc(C)c1)N(C(=O)C(C)(C)C)CC2` (configuration not stated), the Potency is reported as inconclusive: 39.8 µM [activator, single point]. With `COc1ccc(NC(=S)Nc2ccc(OCc3ccccc3)cc2)cc1OC` the Potency was inconclusive: 31.6 µM [inhibitor, single point]. For `COC(=O)CC[C@@H](C)[C@H]1CC[C@H]2[C@@H]3CC[C@@H]4C[C@H](O)CC[C@]4(C)[C@H]3C[C@H](O)[C@]12C`, the Potency was inconclusive: 15.8 µM [activator, partial curve]. In the case of `COc1ccc(Nc2nc3ccccc3n3c(N)nnc23)cc1`, the max response, negative = inhibition is reported as inactive: -1.88%. For `COc1cccc(-c2cc(NCCc3c[nH]c4ccc(OC)cc34)ncn2)c1`, the Potency was inconclusive: 39.8 µM [inhibitor, single point]. For `CCOCCn1ccc2c(OCC(=O)Nc3cc(C)cc(C)c3)cccc2c1=O`, the Potency was inconclusive: 39.8 µM [activator, single point]. For `Cc1nn(C)c(C)c1CNC(=O)c1nn2c(c1Cl)NC(c1cccs1)CC2C(F)(F)F` (configuration not stated), the Potency was inconclusive: 39.8 µM [activator, single point]. In the case of `O=C(Nc1cccn(Cc2c(Cl)cccc2Cl)c1=O)c1ccc(Cl)cc1`, the Potency is reported as inconclusive: 39.8 µM [inhibitor, single point]. `Cc1ccccc1C(=O)N1CCC(C(=O)Nc2ccc(S(=O)(=O)N(C)C(C)C)cc2)CC1` was tested, and the Potency was inconclusive: 31.6 µM [activator, partial curve]. In the case of `Nc1c(S(=O)(=O)c2cccc(Cl)c2)c2nc3ccccc3nc2n1/N=C/c1ccc(O)c(O)c1`, the Potency is reported as inconclusive: 6.31 µM [inhibitor, partial curve]. In the case of `Cc1ccsc1CN(Cc1ccco1)c1cnc(S(C)(=O)=O)nc1C(=O)Nc1ccc(Cl)cc1`, the Potency is reported as inconclusive: 39.8 µM [inhibitor, single point].
